# Assay results: PubChem BioAssay (NCATS)
# “And” between values parts separate entries of the source, which are not always exact repeats. Identical values can stand only once. The inconclusive results got no clear call from the source; some entries with a clear call stand among them for comparison. A potency beside an inconclusive call is a rough fit, not a confirmed value. The source made the active and inactive calls. Calls come from the whole dose curve; as a rule, active = well fitted curve in the direction sought with a large enough effect; inconclusive = small, poorly fitted or top-dose-only effect, or another doubt; inactive = no such curve, though single readings can be large; an effect the other way counts as inactive or inconclusive.
# Experiments:
# [1] = qHTS of pediatric cancer cell lines to identify multiple opportunities for drug repurposing: Primary screen for SK-N-MC cells (AID 1347093); conditions: SK-N-MC viability, CellTiter-Glo luminescence, 48 h; activity change, negative = cytotoxic: at 46 µM (top of the series) unless noted
# In short: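 Metabolically active cells were quantified by ATP-dependent luminescence (CellTiter-Glo, 15 min at room temperature) following 48 h treatment. Cells had been plated at 500-1,000 per well and settled for 5 h beforehand.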
# [2] = qHTS of pediatric cancer cell lines to identify multiple opportunities for drug repurposing: Primary screen for Saos-2 cells (AID 1347097); conditions: Saos-2 viability, CellTiter-Glo ATP luminescence, 48 h; activity change, negative = cytotoxic: at 46 µM (top of the series) unless noted; note: nearly all actives have a fitted effect of over 40% in size
# In short: (§1)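 Cells seeded at 500-1,000 cells/well in growth media, rested 5 hours at 37 degrees C, 5% CO2, then dosed; MIPE compounds at 11-point (from 0.78 nM) and NPC at 8-point (from 0.59 nM) final concentrations. Viability by CellTiter-Glo luminescence after 48 hours.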
# [3] = qHTS of pediatric cancer cell lines to identify multiple opportunities for drug repurposing: Primary screen for SK-N-SH cells (AID 1347098); conditions: SK-N-SH viability, CellTiter-Glo luminescence, 48 h; activity change, negative = cytotoxic: at 57 µM (top of the series) unless noted; note: nearly all actives have a fitted effect of over 65% in size;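 for activity change, negative = cytotoxic: DMSO served as neutral control and bortezomib at 2.3 µM as positive control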
# In short: (§2)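 Cells (500-1,000/well) rested 5 h, then received compounds for 48 h; metabolically active cells were measured by CellTiter-Glo luminescence. Final concentrations spanned up to 46 µM (MIPE, 11-point) or 0.59 nM-46 µM (NPC, 8-point) in primary screens, 11-point in follow-ups.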
# [4] = qHTS of pediatric cancer cell lines to identify multiple opportunities for drug repurposing: Primary screen for NB1643 cells (AID 1347099); note: nearly all actives have a fitted effect of over 50% in size
# In short: as §1
# [5] = qHTS of pediatric cancer cell lines to identify multiple opportunities for drug repurposing: Primary screen for BT-12 cells (AID 1347101); note: nearly all actives have a fitted effect of over 25% in size
# In short: as §2
# [6] = qHTS of pediatric cancer cell lines to identify multiple opportunities for drug repurposing: Primary screen for Rh18 cells (AID 1347102); note: nearly all actives have a fitted effect of over 65% in size
# In short: (§3)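 Cells (500-1,000/well) in growth media were settled 5 h at 37 degrees C, then given compounds for 48 h. Viability was read as CellTiter-Glo luminescence. Primary runs used MIPE at 11 points (0.78 nM-46 µM) and NPC at 8 points (0.59 nM-46 µM); follow-ups used 11 points.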
# [7] = qHTS of pediatric cancer cell lines to identify multiple opportunities for drug repurposing: Primary screen for LAN-5 cells (AID 1347100); conditions: LAN-5 neuroblastoma viability, CellTiter-Glo luminescence, 48 h; activity change, negative = cytotoxic: at 46 µM (top of the series) unless noted
# In short: as §3
# [8] = qHTS of pediatric cancer cell lines to identify multiple opportunities for drug repurposing: Primary screen for U-2 OS cells (AID 1347096); note: nearly all actives have a fitted effect of over 50% in size
# In short: as §3
# Potency is the fitted concentration of half-maximal effect; tags give direction and shape of the fitted curve.
smiles,measurement,setting,value
C[C@H]([C@H](O)CCC(C)(C)O)[C@H]1CC[C@@]2(O)C3=CC(=O)[C@@H]4C[C@@H](O)[C@@H](O)C[C@]4(C)[C@@H]3CC[C@]12C,Potency,[1],inactive
same,Potency,[2],inactive
CCO/N=C(\CC)C1=C(O)CC(c2c(C)cc(C)cc2C)CC1=O (stereo not drawn),Potency,[1],"inconclusive: 43.3 µM [cytotoxic, single point]"
same,Potency,[2],"inconclusive: 30.6 µM [cytotoxic, single point]"
same,Potency,[3],"inconclusive: 2.22 µM [cytotoxic, partial curve, poor fit]"
same,Potency,[4],"inconclusive: 61.1 µM [cytotoxic, single point]"
same,Potency,[5],"inconclusive: 28.2 µM [cytotoxic, partial curve]"
same,Potency,[6],"inconclusive: 21.7 µM [cytotoxic, partial curve, poor fit]"
CNC(C)Cc1ccc2c(c1)OCO2 (stereo not drawn),Potency,[1],"inconclusive: 84.2 µM [cytotoxic, single point]"
same,Potency,[2],"inconclusive: 9.45 µM [cytotoxic, partial curve, poor fit]"
OCCCBr,Potency,[1],inactive
same,Potency,[2],inactive
same,Potency,[4],inactive
same,Potency,[7],inactive
CN1CC[C@]23c4c5ccc(O)c4O[C@H]2[C@@H](O)C=C[C@H]3[C@H]1C5,Potency,[1],"inconclusive: 67.9 µM [cytotoxic, single point]"
same,Potency,[2],"inconclusive: 85.5 µM [cytotoxic, single point]"
same,Potency,[3],"inconclusive: 49.4 µM [cytotoxic, partial curve, poor fit]"
same,Potency,[4],"inconclusive: 67.9 µM [cytotoxic, single point]"
same,Potency,[5],"inconclusive: 31.2 µM [cytotoxic, partial curve, poor fit]"
CC[N+]1(CC)CCC(OC(=O)C(O)(c2ccccc2)c2ccccc2)C1 (stereo not drawn),Potency,[1],"inconclusive: 0.0038 µM [cytotoxic, full curve, poor fit]"
same,Potency,[2],inactive
same,Potency,[4],inactive
C#CC(O)(C=CCl)CC (stereo not drawn),Potency,[1],inactive
same,Potency,[2],inactive
O=C1CN2CCOC2(c2ccccc2Cl)c2cc(Cl)ccc2N1 (stereo not drawn),Potency,[1],inactive
same,Potency,[2],inactive
CN1CCC(O)(c2ccc(F)cc2)C(C(=O)c2ccc(F)cc2)C1 (stereo not drawn),Potency,[1],inactive
same,Potency,[2],inactive
same,Potency,[3],"inconclusive: 38.6 µM [cytotoxic, partial curve, poor fit]"
same,Potency,[7],inactive
same,Potency,[5],inactive
Oc1ccc([C@H]2CNCc3c2ccc(O)c3O)cc1O,Potency,[1],"inconclusive: 33.5 µM [cytotoxic, single point]"
same,Potency,[2],"inconclusive: 29.9 µM [cytotoxic, single point]"
same,Potency,[3],"inconclusive: 38.6 µM [cytotoxic, single point]"
same,Potency,[4],inactive
same,Potency,[7],"inconclusive: 23.7 µM [cytotoxic, single point]"
same,Potency,[6],"inconclusive: 33.5 µM [cytotoxic, partial curve, poor fit]"
O=c1[nH]c2ccccc2n1C1CCNCC1,Potency,[1],"inconclusive: 0.0067 µM [cytotoxic, full curve, poor fit]"
same,Potency,[2],inactive
same,Potency,[3],inactive
same,Potency,[4],inactive
NC1=NC(=O)N2CC12 (stereo not drawn),Potency,[1],"inconclusive: 37.2 µM [cytotoxic, single point]"
same,Potency,[2],active: 13.2 µM
same,Potency,[7],"inconclusive: 23.5 µM [cytotoxic, single point]"
same,Potency,[6],inactive
c1cc2ccc3cccc4ccc(c1)c2c34,Potency,[1],"inconclusive: 72.1 µM [cytotoxic, single point]"
same,Potency,[2],"inconclusive: 57.3 µM [cytotoxic, single point]"
CC(C)(C)C(O)C(Oc1ccc(Cl)cc1)n1cncn1 (stereo not drawn),Potency,[1],active: 0.001 µM
same,Potency,[2],"inconclusive: 77 µM [cytotoxic, partial curve, poor fit]"
same,Potency,[3],"inconclusive: 55.9 µM [cytotoxic, single point]"
C[C@H]1[C@@H]2Cc3ccc(O)cc3[C@@]1(C)CCN2C,Potency,[1],"inconclusive: 0.0292 µM [cytotoxic, full curve, poor fit]"
same,Potency,[2],inactive
CC(C)=C[C@@H]1[C@@H](C(=O)OCc2coc(Cc3ccccc3)c2)C1(C)C,Potency,[1],"inconclusive: 33.5 µM [cytotoxic, single point]"
same,Potency,[2],inactive
NC1CC1c1ccccc1 (stereo not drawn),Potency,[1],inactive
same,Potency,[2],inactive
C[C@@H]1C[C@@H]([C@H](O)CC2CC(=O)NC(=O)C2)C(=O)[C@@H](C)C1,Potency,[1],active: 84.1 nM and active: 74.3 nM
same,Potency,[8],"inconclusive: 1.68 µM [cytotoxic, partial curve] and inconclusive: 1.18 µM [cytotoxic, partial curve]"
same,Potency,[2],"inconclusive: 841 nM [cytotoxic, full curve] and active: 1.87 µM"
same,Potency,[3],active: 4.86 µM and active: 8.57 µM
same,Potency,[4],"inconclusive: 0.376 µM [cytotoxic, full curve]"
same,Potency,[7],"inconclusive: 237 nM [cytotoxic, full curve] and inconclusive: 526 nM [cytotoxic, full curve]"
same,Potency,[6],"inconclusive: 473 nM [cytotoxic, full curve] and inconclusive: 3.72 µM [cytotoxic, partial curve]"
